Assay results taken from ChEMBL document CHEMBL4888484, “Replenishing the malaria drug discovery pipeline: Screening and hit evaluation of the MMV Hit Generation Library 1 (HGL1) against asexual blood stage Plasmodium falciparum ,using a nano luciferase reporter read-out” (2022).
Out of some 150,000 compounds screened, about 540 (0.36%) showed an effect of 50% or more. The list shows a part of the results.

What follows are compounds tested on Plasmodium falciparum (assay: Primary screen in NF54 nanoGlo assay, in single point, at 2uM, 72h; a lower Z score goes with more inhibition). Conditions: timepoint 72 hour.
Assay type: functional, Erythrocyte
For `O=C(NCCOCCn1ccnc1)c1cncc(F)c1`, the “% Inhibition” value was -5% and the Z score was 0.55. In the case of `O=C(CN1CCc2nocc2C1)N1CCCCC1`, the “% Inhibition” value is reported as 8% and the Z score is reported as -0.99. In the case of `CCCc1nc(C(=O)N2CCNC(=O)[C@@H]2Cc2ccccc2)cs1`, the “% Inhibition” value is reported as 0% and the Z score is reported as 0.03. `O=C(COc1ccccc1-c1nnc[nH]1)NCc1ccco1` was tested, and the “% Inhibition” value was 29% and the Z score was -3.25. With `CCOC(=O)c1ccc2nc(-c3cccc(OC)c3)cc(OCC(=O)Nc3ccc(Cl)cc3)c2c1` the “% Inhibition” value was -8% and the Z score was 1.34. With `O=S(=O)(Nc1cccc2cccnc12)c1cccs1` the “% Inhibition” value was 55% and the Z score was -5.93. For `CO[C@@]1(C)CCCN(C(=O)NCC2(CC#N)CC2)CC1`, the “% Inhibition” value was -15% and the Z score was 1.24. For `Cn1cc(CN2CC[C@H](c3nc4ccccc4[nH]3)C2)c2ccccc21`, the “% Inhibition” value was 33% and the Z score was -3.77. For `CC1CN(C(=O)C2(C(F)(F)F)CCC2)C1`, the “% Inhibition” value was 6% and the Z score was -0.99. `CC1(C)CN(CC(=O)NC2CCCC2)c2ccccc2O1` was tested, and the “% Inhibition” value was -7% and the Z score was 1.02. With `O=C(NCC#CCOc1ccc2c(c1)OCO2)c1ccc(=O)[nH]c1` the “% Inhibition” value was -15% and the Z score was 1.95. With `CCOCC(O)CN(C)CC(C)c1ccccc1` (stereo not given) the “% Inhibition” value was -3% and the Z score was 0.37. In the case of `CC(C)(C)c1csc(Cn2cncc(Br)c2=O)n1`, the “% Inhibition” value is reported as -19% and the Z score is reported as 2.37. With `CNc1snc(C)c1C(=O)Nc1nc(C(C)C)cs1` the “% Inhibition” value was -7% and the Z score was 1.01. With `CC1CC(C)CN(C(=O)CNC2(c3nccs3)CCCC2)C1` (stereo not given) the “% Inhibition” value was -11% and the Z score was 1.73. In the case of `Cc1cc(C(=O)NC[C@H]2CCCN(c3ncc(C#N)c(N)n3)C2)no1`, the “% Inhibition” value is reported as -11% and the Z score is reported as 1.23. `O=C(Nc1ccc2oc(-c3ccc(Cl)cc3Cl)nc2c1)c1cc(-n2cnnc2)ccc1Cl` was tested, and the “% Inhibition” value was 1% and the Z score was -0.12. With `O=c1[nH]c2cc(Br)cnc2[nH]1` the “% Inhibition” value was -5% and the Z score was 0.61. For `COc1ccc(C(=O)N2C[C@H](O)[C@@H](N(C)Cc3cnccn3)C2)cc1`, the “% Inhibition” value was 13% and the Z score was -1.66. `CN(C)c1ccc(C(=O)N2CCC(Cn3cnc(C4CC4)cc3=O)CC2)nn1` was tested, and the “% Inhibition” value was -12% and the Z score was 1.72. In the case of `C=CCn1cc(CNCC2(CC(C)C)CCC2)cn1`, the “% Inhibition” value is reported as -3% and the Z score is reported as 0.59. `COc1ccc(Cn2nc(C)nc2[C@@H]2CCCN3CCCC[C@H]23)cc1` was tested, and the “% Inhibition” value was -15% and the Z score was 1.97. In the case of `COc1ccccc1C(=O)N[C@@]1(C(F)(F)F)Nc2nc3ccccc3n2C1=O`, the “% Inhibition” value is reported as 1% and the Z score is reported as -0.2. For `O=C(C[C@H](c1ccc(Cl)c(Cl)c1)c1c[nH]c2ccc(Cl)cc12)Nc1ccccc1`, the “% Inhibition” value was 1% and the Z score was -0.11. `COc1ccccc1CNc1nc(-c2nonc2N)no1` was tested, and the “% Inhibition” value was -7% and the Z score was 0.92. `O=C(Cn1ccc2c(Cl)cccc21)NC[C@@H]1CCCN2CCCC[C@H]12` was tested, and the “% Inhibition” value was 16% and the Z score was -3.06. In the case of `Cn1nc(C(=O)N2CCOC3CCCCC32)c2ccccc2c1=O` (stereo not given), the “% Inhibition” value is reported as -11% and the Z score is reported as 1.84. `CN(Cc1cnc2ccccc2c1)C(=O)CCc1csc(N)n1` was tested, and the “% Inhibition” value was -10% and the Z score was 1.48. With `CCn1nc(C)cc1C(=O)N1CCC[C@H](c2nc3c(C)cccc3[nH]2)C1` the “% Inhibition” value was -1% and the Z score was 0.13. For `CNc1cc([C@H]2C[C@H](NC(=O)CN3CCC(C)CC3)C2)ncn1`, the “% Inhibition” value was 1% and the Z score was -0.23. In the case of `CCC(C)(C)C(=O)N1CCC(N2C(=O)CC[C@H]2C(=O)NC(C)C)CC1`, the “% Inhibition” value is reported as -14% and the Z score is reported as 2.68. In the case of `COCc1nnc([C@@H]2CC(F)(F)CN2C(=O)c2ccoc2C)o1`, the “% Inhibition” value is reported as 10% and the Z score is reported as -1.73. With `COc1ccc(C(=O)N2CCCCC[C@@H]2CN2CCOCC2)cc1OC` the “% Inhibition” value was -3% and the Z score was 0.45. `Cc1ccccc1-n1cc(-c2ccccc2)c2c(N3CCc4ccccc4C3)ncnc21` was tested, and the “% Inhibition” value was 28% and the Z score was -3.8. For `Cc1ccccc1C[C@@]1(C2CCNCC2)NC(=O)N(CCc2ccncc2)C1=O`, the “% Inhibition” value was -11% and the Z score was 1.09. For `Cc1ccc(OCc2nc(COc3ccccc3)nn2CC(C)(C)O)cc1`, the “% Inhibition” value was -2% and the Z score was 0.26. `CC(=O)N[C@@H](C)C(=O)NCc1nc(-c2cccc(F)c2)c(-c2ccccn2)[nH]1` was tested, and the “% Inhibition” value was 27% and the Z score was -3.81. In the case of `CC(C)(C)OC(=O)N[C@H]1CNC[C@@H]1c1ccccc1F`, the “% Inhibition” value is reported as -6% and the Z score is reported as 1.23. For `Cc1ccc(NC(=O)c2cccn2-c2cccnc2)cc1C`, the “% Inhibition” value was -5% and the Z score was 0.48. `COc1c[nH]c(C(=O)NCCOc2ccccc2F)cc1=O` was tested, and the “% Inhibition” value was -7% and the Z score was 1.23. `COC(C)(C)CS(=O)(=O)Nc1cccc(Cl)c1O` was tested, and the “% Inhibition” value was 0% and the Z score was -0.07. With `CC(C)(C)Cc1nnc(NCc2cc(C#N)cs2)o1` the “% Inhibition” value was -21% and the Z score was 1.86. With `CCn1ccc(C(=O)N[C@@H]2[C@H]3CCO[C@H]3[C@H]2COC)n1` the “% Inhibition” value was 9% and the Z score was -1.31. `CN(CCCc1ccccc1)c1cc(C2CC(O)C2)ncn1` (stereo not given) was tested, and the “% Inhibition” value was -21% and the Z score was 2.13. In the case of `CCCCOC1CC(N(C)Cc2nnnn2-c2ccccc2)C1(C)C` (stereo not given), the “% Inhibition” value is reported as -11% and the Z score is reported as 1.72. With `Cc1cnccc1-c1cccc(C(=O)NC2(C(N)=O)CCCCCC2)c1` the “% Inhibition” value was -3% and the Z score was 0.58. In the case of `O=C(NCCn1cc(-c2ccoc2)cn1)C1CCCC1`, the “% Inhibition” value is reported as 18% and the Z score is reported as -2.24. With `O=C(C[C@H]1CCCOC1)NCc1ccno1` the “% Inhibition” value was -1% and the Z score was 0.21. `COC(=O)[C@H](C)n1nc2c(S(=O)(=O)N3CCOCC3)cccn2c1=O` was tested, and the “% Inhibition” value was 1% and the Z score was -0.15. For `CN(Cc1ccc2c(c1)CN(C(=O)c1ccc(Oc3ccccc3)o1)CCO2)Cc1cc(C2CC2)[nH]n1`, the “% Inhibition” value was -5% and the Z score was 0.97. For `O=C(Cc1cccs1)N1CC[C@H](CCOc2ccccc2)C1`, the “% Inhibition” value was -12% and the Z score was 2.3. `COc1ccc(N2C[S@@+]([O-])CC2=O)cc1` was tested, and the “% Inhibition” value was -7% and the Z score was 0.96. In the case of `O=C(c1cnc2ccccc2n1)N1CCN(c2cccc(C(F)(F)F)c2)CC1`, the “% Inhibition” value is reported as 6% and the Z score is reported as -1.16. For `CCCCN1C(=O)CC2(Oc3ccccc3O2)C1=O`, the “% Inhibition” value was 0% and the Z score was -0.02. In the case of `Cc1nc(C(=O)NCCc2nc3ccccc3[nH]2)c(C)s1`, the “% Inhibition” value is reported as -7% and the Z score is reported as 0.88.
